# Experimental data taken from patent publication US11707533B2, “Antibody-drug conjugate comprising antibody against human ROR1 and use for the same” (LegoChem Biosciences, Inc., priority 2019, dated 2023).
# Legend:
# [1] = target: T1, recombinant human ROR1-Fc (Homo sapiens, UniProt Q01973); experiment: Monoclonal phage antibody (scFv) screening ELISA on ROR1-Fc; format: binding; conditions: monoclonal phage scFv supernatant
# T1 construct: made in house; host or cells: HEK 293E
# Method: Thereafter, the ELISA method was used as follows to select clones expressing monoclonal soluble scFv binding to ROR1-Fc antigen (Steinberger Rader and Barbas III 2000 Phage display vectors In: Phage Display Laboratory Manual 1sted Cold Spring Harbor Laboratory Press NY USA pp 119-1112). Specifically, 100 ng per well of recombinant human ROR1-Fc prepared in Embodiment 1-1 or FBMA-Fc was placed in a 96-well microtiter plate (Nunc-Immuno Plate, NUNC, USA), which was coated overnight at 4° C. BCMA-Fc is the protein used as a negative control, a recombinant protein where the extracellular domain of human BCMA protein is linked to human Fc. 200 μL each of 3% BSA was placed in each well, and blocked for 2 hours at 37° C.
# The monoclonal phage supernatant was prepared by mixing 1:1 with 3% BSA, and 100 μL each of this mixture was loaded into the wells and reacted for 2 hours at 37° C. After washing 5 times with 300 μL PBST, anti-HA HRP binding antibody was added, reacted for 1 hour at 37° C., then washed 5 times with PBST. 100 μL TMB (Tetramethylbenzidine, Sigma, T0440) was added for color development, and then 50 μL 1N H2SO4 was added to stop the reaction. Absorbance was measured at 450 nm and 650 nm, and clones where the absorbance at 450 nm and 650 nm was 10 or higher when coated with 1 ? /mL ROR1 were screened (FIG. 1)
# [2] = target: T2, recombinant human ROR1-His (Homo sapiens, UniProt Q01973); experiment: Octet measurement of affinity of anti-ROR1 IgG antibody to ROR1; format: binding; conditions: 1:1 fitting, 30° C.
# T2 construct: purchased Sino Biological 13968-H08H
# Method: A 96-well black microplate (greiner bio one) was mounted on a biosensor tray case, and 200 ? 10×KB or DW was added to each of 8 wells. Then Anti Penta His biosensors or 8 AR2G biosensors (ForteBio, USA) were inserted to hydrate for 10 minutes. 600 ? of the assay samples were diluted 2-fold or 3-fold to the appropriate assay concentrations, using 1×KB or 10×KB to 30 to 0.021 nM. To immobilize the antigen, recombinant human ROR1-His (Sino Biological, 13968-H08H) was diluted to 1 ? /ML with 10×KB or Sodium Acetate pH5 buffer. Immobilization was fixed at a threshold of 0.3 nm in the loading step. The association assay was carried out for 3 to 10 minutes, and the dissociation assay was carried out for 20 minutes. According to the Octet program template, the buffer was placed in a new 96-well black microplate according to order. As Baseline1, 200 ? 10×KB or DW was placed. Then 200 ? each of 1 ? /mL of the antigen to be loaded, the ROR1-HIS protein, was added. As Baseline2, 200 ? 10×KB or 1×KB was placed. Then to each well 30 to 0.021 nM of the diluted antibody and 200 ? each of 10×KB buffer or 1×KB corresponding to a reference blank was added. The temperature of the test plate was fixed at 30° C. After all of the samples were introduced, the equipment was started, and after the assay was completed, results were uploaded to the Octet Analysis 90 software, with KD values analyzed through 1:1 fitting. By obtaining KD values through the Octet assay method, it was confirmed that the anti-ROR1 antibody had strong binding potential to ROR1 antigen.
# [3] = test system: ROR1 over-expressing cell line JeKo-1; experiment: Induction of auto-active cell death (Annexin V / PI, FACS) in JeKo-1; format: cell-based, human; conditions: for induction of auto-active cell death (dyeing by Annexin V and PI): antibody cross-linked (multimerized) by anti-human Fc antibody; for increase in dyeing by the auto-active cell death marker Annexin V over the control: antibody cross-linked by anti-human Fc antibody, 24 hours
# Method: (§1) To this end, the ROR1 over-expressing cell line JeKo-1 was centrifuged to remove the serum-containing medium. After washing once with PBS, 5×10^6 cells were seeded in each well of a 6-well plate using serum-free RPMI1640 medium. 100 ? /mL of the anti-ROR1 antibody according to the present invention and 300 ? /ml of anti-human Fc antibody (Thermo Fisher, 31125) were placed at a 1:1 ratio in an equivalent tube, an reacted for 10 minutes at room temperature so that the anti-ROR1 antibody was cross-linked by the anti-human Fc antibody. 150 ? each of the mixtures was placed in the wells containing 15 ml medium so that the final amount of antibody treated was 10 ? /mL for ROR1 antibody, and 30 ? /mL for anti-human Fc antibody, then reacted by culturing for 24 hours at 5% CO2 and 37° C.
# (§2) Next, to confirm whether or not whether or not the ROR1 antibody alone and the cross-linked anti-ROR1 antibody had the capacity to induce auto-active cell death, the cells of each well were collected and washed once with PBS. Thereafter, each group was reacted with the auto-active cell death marker Annexin V and the cell death marker PI, and the degree to which the groups were dyed was observed through FACS analysis.
# [4] = test system: human mantle cell lymphoma cell line JeKo-1; experiment: Cancer growth suppression efficacy of anti-ROR1 IgG antibody in mouse tumor xenograft model; format: in vivo; conditions: Day 16; 10 mg/kg peritoneally twice a week, 5 administrations; JeKo-1 xenograft in SCID mice
# Method: Human cancer xenograft mice were prepared by transplanting 1×10^7 cells/head of the ROR1-expressing human mantle cell lymphoma cell line JeKo-1 to severe combined immunodeficiency mice (SCID). After xenograft, when tumor size reached 170 mm^3 on average (Day 1), the mice were divided into groups, and 5 types of anti-ROR-1 antibody were peritoneally injected into the mice using a 1 mL syringe twice a week at 10 mg/kg for a total of 5 administrations (Days 1, 4, 7, 10 and 14). The negative control group was peritoneally administered 10 mg/kg each of human IgG1 (InVivoPlus human IgG1 isotype control, BioXCell, BP0297) having a structure similar to that of ROR-1 antibody twice a week for a total of 5 administrations. The size of the tumors grafted to the mice and the weight of the mice were measured immediately before initial administration (Day 1), immediately before administration on each administration date thereafter, and at two days after final administration (Day 16).
# [5] = target: T3, cell surface-expressed ROR1 (JeKo-1 cell line) (Homo sapiens, UniProt Q01973); experiment: Monoclonal phage antibody (scFv) flow cytometry on JeKo-1; format: binding; conditions: monoclonal scFv supernatant
# T3 construct: reacted with a cell line (JeKo-1) overexpressing ROR1; endogenous in cells; host or cells: JeKo-1
# Method: Next, flow cytometry was used to screen clones binding to cell lines expressing ROR1. Specifically, 100 ? of the monoclonal scFv supernatant was reacted with a cell line (JeKo-1) overexpressing ROR1, then washed two times with PBS. After reacting with anti-HA-FITC antibody (Sigma, H7411) at 4° C. for 30 minutes, and washing twice with PBS then suspending in 200 ? PBS, a FACSCalibur flow cytometer (BD Bioscience) was used to screen clones binding to the JeKo-1 cell line (FIG. 2)
# [6] = test system: ROR1 non-expressing cell line U266; experiment: Induction of auto-active cell death (Annexin V / PI, FACS) in U266; format: cell-based; conditions: cross-linked antibody
# Method: as §1, §2
# In particular, in terms of dyeing by the auto-active cell death marker Annexin V, there was a 23% increase for the C2E3 clone and a 10% increase for the AB4 clone over the control. […]
# T2 sequence (Q01973 30-406 limits assumed): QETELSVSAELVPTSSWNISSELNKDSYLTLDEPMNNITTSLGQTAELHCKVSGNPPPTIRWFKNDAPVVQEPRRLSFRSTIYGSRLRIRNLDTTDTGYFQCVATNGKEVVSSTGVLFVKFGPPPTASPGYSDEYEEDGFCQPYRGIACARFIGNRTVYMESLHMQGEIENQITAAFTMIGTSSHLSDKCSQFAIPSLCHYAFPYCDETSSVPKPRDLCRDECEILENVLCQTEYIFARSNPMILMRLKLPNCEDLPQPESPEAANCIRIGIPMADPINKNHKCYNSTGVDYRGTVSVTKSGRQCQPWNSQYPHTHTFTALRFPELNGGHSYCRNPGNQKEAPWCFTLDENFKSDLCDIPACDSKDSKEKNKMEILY
# T1 sequence (Q01973 30-406): as the sequence (Q01973 30-406 limits assumed) above
# T3 sequence (Q01973 30-937): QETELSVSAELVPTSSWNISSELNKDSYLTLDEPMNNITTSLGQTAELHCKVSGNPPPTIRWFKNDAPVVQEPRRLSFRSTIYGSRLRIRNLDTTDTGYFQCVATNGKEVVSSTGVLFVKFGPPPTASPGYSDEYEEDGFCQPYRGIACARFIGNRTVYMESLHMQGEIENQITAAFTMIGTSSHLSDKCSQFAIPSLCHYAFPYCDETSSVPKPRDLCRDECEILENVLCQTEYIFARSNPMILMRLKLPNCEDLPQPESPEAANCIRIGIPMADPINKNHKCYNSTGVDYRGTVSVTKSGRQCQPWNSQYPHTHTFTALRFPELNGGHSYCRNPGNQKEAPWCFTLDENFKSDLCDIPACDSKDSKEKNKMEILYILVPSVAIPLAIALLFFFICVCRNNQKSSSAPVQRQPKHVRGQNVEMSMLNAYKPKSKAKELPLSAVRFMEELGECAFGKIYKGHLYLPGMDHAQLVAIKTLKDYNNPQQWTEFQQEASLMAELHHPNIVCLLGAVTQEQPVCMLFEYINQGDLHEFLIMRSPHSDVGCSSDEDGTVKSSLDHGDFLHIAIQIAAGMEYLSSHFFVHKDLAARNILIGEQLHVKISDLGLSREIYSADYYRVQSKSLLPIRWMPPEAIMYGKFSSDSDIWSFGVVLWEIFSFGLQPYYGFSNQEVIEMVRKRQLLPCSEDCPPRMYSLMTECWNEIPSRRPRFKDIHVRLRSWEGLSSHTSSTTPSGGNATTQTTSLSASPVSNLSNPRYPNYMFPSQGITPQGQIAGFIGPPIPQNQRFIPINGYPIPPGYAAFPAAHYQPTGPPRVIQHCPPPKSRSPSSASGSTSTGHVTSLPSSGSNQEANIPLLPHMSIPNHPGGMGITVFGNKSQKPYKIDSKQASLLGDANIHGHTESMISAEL
Molecule,binding to recombinant human ROR1 protein [1],koff [2],kon [2],induction of auto-active cell death (dyeing by Annexin V and PI) [3],increase in dyeing by the auto-active cell death marker Annexin V over the control [3],% tumor growth inhibition (% TGI) compared to the human IgG1 antibody (HuIgG1) negative control [4],binding to cell lines expressing ROR1 [5],induction of auto-active cell death (dyeing by Annexin V and PI) [6]
"AB4: anti-ROR1 antibody clone, VH SEQ ID NO 43, VL SEQ ID NO 51; IgG chains SEQ ID NOs 59 and 67 (antibody) heavy: EVQLLESGGGLVQPGGSLRLSCAASGFTFSSYDMSWVRQAPGKGLEWVSWISPDSGSIYYADSVKGRFTISRDNSKNTLYLQMNSLRAEDTAVYYCARPTGRFDYWGQGTLVTVSS[human IgG1 constant region not printed] light: QSVLTQPPSASGTPGQRVTISCSGSSSNIGNNNVNWYQQLPGTAPKLLIYYDNKRPSGVPDRFSGSKSGTSASLAISGLRSEDEADYYCGTWDASLSGYVFGGGTKLTVLGQPKAAPSVTLFPPSSEELQANKATLVCLISDFYPGAVTVAWKADSSPVKAGVETTTPSKQSNNKYAASSYLSLTPEQWKSHRSYSCQVTHEGSTVEKTVAPAECS",binding,0.000116 s⁻¹,1.81e+06 M⁻¹ s⁻¹,increased over the control group,10%,361%,binding,–
"BA6: anti-ROR1 antibody clone, VH SEQ ID NO 46, VL SEQ ID NO 54; IgG chains SEQ ID NOs 62 and 70 (antibody) heavy: EVQLLESGGGLVQPGGSLRLSCAASGFTFSNYDMSWVRQAPGKGLEWVSAIYHSGSSKYYADSVKGRFTISRDNSKNTLYLQMNSLRAEDTAVYYCARGGNGAWDTGFDYWGQGTLVTVSS[human IgG1 constant region not printed] light: QSVLTQPPSASGTPGQRVTISCSGSSSNIGSNDVSWYQQLPGTAPKLLIYYDNNRPSGVPDRFSGSKSGTSASLAISGLRSEDEADYYCGAWDDSLSGYVFGGGTKLTVLGQPKAAPSVTLFPPSSEELQANKATLVCLISDFYPGAVTVAWKADSSPVKAGVETTTPSKQSNNKYAASSYLSLTPEQWKSHRSYSCQVTHEGSTVEKTVAPAECS",binding,0.000231 s⁻¹,2.47e+06 M⁻¹ s⁻¹,did not induce auto-active cell death,–,317%,binding,–
"C2E3: anti-ROR1 antibody clone, VH SEQ ID NO 48, VL SEQ ID NO 56; IgG chains SEQ ID NOs 64 and 72 (antibody) heavy: EVQLLESGGGLVQPGGSLRLSCAASGFTFSNYAMSWVRQAPGKGLEWVSSISHNSGSTYYADSVKGRFTISRDNSKNTLYLQMNSLRAEDTAVYYCAKFISARKSLGRSYSNGMDVWGQGTLVTVSS[human IgG1 constant region not printed] light: QSVLTQPPSASGTPGQRVTISCTGSSSNIGSNDVTWYQQLPGTAPKLLIYADSKRPSGVPDRFSGSKSGTSASLAISGLRSEDEADYYCGTWDYSLSGYVFGGGTKLTVLGQPKAAPSVTLFPPSSEELQANKATLVCLISDFYPGAVTVAWKADSSPVKAGVETTTPSKQSNNKYAASSYLSLTPEQWKSHRSYSCQVTHEGSTVEKTVAPAECS",binding,–,–,increased over the control group,23%,360%,binding,not able to induce auto-active cell death
